About 5,300 (4.4%) of roughly 120,000 compounds were called active. The inconclusive results got no clear call from the source; some entries with a clear call stand among them for comparison. Calls follow the shape of the dose curve; as a rule, active = well fitted inhibition curve with a large enough effect; inconclusive = small, poorly fitted or top-dose-only effect; inactive = no such curve, though single readings can be large or run the other way. Where the call is inconclusive, the potency comes from a doubtful curve fit.
Experiment: qHTS Primary assay for Inhibitors of Plasmodium falciparum Dd2 growth in vitro; also: nearly all actives have a fitted effect of over 65% in size;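 as to activity, negative = inhibition: plate controls were DMSO vehicle for no effect and reference drug for full effect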
Settings: P. falciparum Dd2 growth, SYBR Green, 72 h; activity, negative = inhibition: at 28.9 µM (top of the series) unless noted; series mostly up to 28.9 µM
Method in brief: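 Infected erythrocytes (Dd2, 0.3% parasitemia, 2.5% hematocrit final) are added to compound in RPMI-1640/Albumax II medium, grown 72 h at 37C in low oxygen, then lysed with saponin/Triton-X containing SYBR Green and read by fluorescence.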
With `O=C(CCc1c[nH]c2ccccc12)N1CC2CC(C1)[C@H]1CCCC(=O)N1C2` (stereo partly specified) the “activity, negative = inhibition” value was inactive: -15.3%. With `CNCc1cccc(Oc2ccccc2)c1` the Potency was inconclusive: 10 µM [inhibitor, partial curve]. With `Cn1c(CCNC(=O)c2ccccc2C2CCNC2)nc2ccccc21` (stereo unspecified) the “activity, negative = inhibition” value was inactive: -5.57%. For `CC1=C[C@@H](CNCc2ccccn2)[C@H](C(C)C)C[C@H]1Cc1nnc(-c2ccc(N(C)C)cc2)o1`, the Potency was inconclusive: 0.158 µM [inhibitor, partial curve, poor fit]. With `CC(C)C1=NOC2(CCN(C3CCCCC3)CC2)C1` the activity, negative = inhibition was inconclusive: -61% [inhibitor] [at 44.1 µM]. With `O=C1Nc2ccccc2C12CCN(Cc1ccc(F)cc1)CC2` the Potency was inconclusive: 17.8 µM [inhibitor, partial curve, poor fit]. For `COc1ncccc1-c1cc(C2=CCOCC2)c2cncn2c1`, the Potency was inconclusive: 15.8 µM [inhibitor, single point]. For `Cc1cc(Br)cc(C)c1NC(=O)c1sc2ncn(Cc3cccc(F)c3)c(=O)c2c1C`, the Potency was inconclusive: 12.6 µM [inhibitor, single point]. With `O=C(c1cccc2nccnc12)N1CCc2c(ncnc2N2CCOCC2)C1` the “activity, negative = inhibition” value was inactive: -12.5%. In the case of `CCCOc1ccc(-c2nonc2NC(=O)c2ccco2)cc1OCCC`, the Potency was inconclusive: 3.98 µM [inhibitor, full curve, poor fit]. In the case of `COCCNC(=O)C1COC2(CCN(C(=O)C3CC3)CC2)N1C(=O)c1cccc(OC)c1` (stereo unspecified), the “activity, negative = inhibition” value was inactive: 14.7%. In the case of `CCCOc1cccc(C2c3c(oc4ccc(F)cc4c3=O)C(=O)N2CCCN2CCOCC2)c1` (stereo unspecified), the Potency was active: 6.31 µM. For `O=C(O)c1ccccc1-n1nc(-c2ccncc2)nc1CN1CCCCC1=O`, the “activity, negative = inhibition” value was inactive: -11.7%. For `Cc1ccc(S(=O)(=O)c2nnn3c2nc(NC2CCCCCC2)c2sccc23)cc1C`, the Potency was inconclusive: 17.8 µM [inhibitor, single point]. In the case of `COc1cccc(N2C(=O)NC(=NC3CCCC3)C23CCCN(C(=O)c2ccccc2)C3)c1` (stereo unspecified), the “activity, negative = inhibition” value was inactive: 8.46%. For `COc1cccc(-c2ccccc2NC(=O)C2CCN(CC=C(C)C)CC2)c1`, the Potency was active: 5.62 µM. For `COCc1ccc(C(=O)N2CCCC(CCc3cccc(OC)c3)C2)o1` (stereo unspecified), the “activity, negative = inhibition” value was inactive: -8.34%. For `COc1ccc(OC)c(NC(=O)C(C)n2c(=O)cc(C)c3c(C)nn(-c4ccccc4)c32)c1` (stereo unspecified), the “activity, negative = inhibition” value was inactive: 17.1%. With `COC(=O)[C@@H]1Cc2ncn(Cc3ccc(OC)cc3)c2CN1S(=O)(=O)c1ccc(OC)cc1` the Potency was inconclusive: 1.12 µM [inhibitor, partial curve, poor fit]. With `Cc1cccc(-c2ccc(CN)cc2)c1` the Potency was active: 11.2 µM. In the case of `Cc1ccc(CNC(=O)c2c[nH]c3ccc(S(=O)(=O)N4CCOCC4)cc3c2=O)cc1`, the “activity, negative = inhibition” value was inactive: -21.7%.
Potency is read from the fitted curve at half-maximal effect; tags tell the direction and shape of the fitted curve.
